IC50 is the fitted dose that halves viability relative to control wells, and lower means more sensitive; where the fit passes the top or lowest dose, that dose stands as a limit. AUC, from the same fit, is the share of area under the viability curve across the 256-fold dose range; values near 1 show little effect. For some of these results: Where the top dose is marked as inferred, it is not printed in the source and was worked back from the curve model.
Assays:
Assay in all cases: Viability of human cancer cell lines after 72 h of drug (GDSC screen)
[1] = compound: CC[C@H](CO)Nc1nc(NCc2ccccc2)c2ncn(C(C)C)c2n1 [Roscovitine]; settings: top dose 16 µM; top dose inferred
Protocol: (§1)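 Human cancer cell lines in 384-well plates, medium with 10% serum, drug for 72 h over a 256-fold dose range (nine 2-fold or five 4-fold steps up to the top dose). Adherent lines were fixed and stained with the nucleic acid dye Syto60, suspension lines read with resazurin; signal relative to control wells, capped at 0 and 100%. One two-parameter sigmoid per drug and line, fitted in a mixed model over all curves with the slope shared within a line.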

[2] = compound: CO[C@@H]1[C@H](N(C)C(=O)c2ccccc2)C[C@H]2O[C@]1(C)n1c3ccccc3c3c4c(c5c6ccccc6n2c5c31)C(=O)NC4 [Midostaurin]; settings: top dose 0.512 µM; top dose inferred
Protocol: as §1

[3] = compound: COc1cc(Nc2c(C#N)cnc3cc(OCCCN4CCN(C)CC4)c(OC)cc23)c(Cl)cc1Cl [Bosutinib]; settings: top dose 2 µM
Protocol: as §1

[4] = compound: Cc1ccc(C(=O)Nc2cccc(C(F)(F)F)c2)cc1Nc1nc(-c2cccnc2)nc2c1cnn2C [NVP-BHG712]; settings: top dose 10.24 µM; top dose inferred
Protocol: as §1

[5] = compound: O=C(O)CNC(=O)c1c(O)c2ccccc2n(Cc2ccccc2)c1=O [IOX2]; settings: top dose 0.1 µM; top dose inferred
Protocol: as §1

[6] = compound: CO[C@@]12[C@H](COC(N)=O)C3=C(C(=O)C(C)=C(N)C3=O)N1C[C@@H]1N[C@@H]12 [Mitomycin C]; settings: top dose 16 µM
Protocol: as §1

Cell Line | AUC [1] | IC50 [1] | AUC [2] | IC50 [2] | AUC [3] | IC50 [3] | AUC [4] | IC50 [4] | AUC [5] | IC50 [5] | AUC [6] | IC50 [6]
LS-1034 (large intestine, adherent) | 0.928 | > 16000 nM | 0.879 | > 512 nM | 0.985 | > 2000 nM | 0.822 | 6810 nM | 0.98 | > 100 nM | – | –
KASUMI-1 (acute myeloid leukaemia, suspension) | 0.985 | > 16000 nM | – | – | 0.871 | 1900 nM | – | – | 0.984 | > 100 nM | – | –
NCI-H211 (small cell lung carcinoma, adherent) | 0.977 | > 16000 nM | 0.936 | > 512 nM | 0.972 | > 2000 nM | 0.869 | 8990 nM | 0.986 | > 100 nM | – | –
DEL (lymphoid neoplasm, suspension) | 0.95 | > 16000 nM | – | – | 0.985 | > 2000 nM | 0.99 | > 10200 nM | 0.993 | > 100 nM | – | –
OCUB-M (breast, adherent) | 0.965 | > 16000 nM | 0.939 | > 512 nM | 0.974 | > 2000 nM | 0.854 | 6460 nM | 0.986 | > 100 nM | – | –
GA-10 (Burkitt lymphoma, suspension) | 0.809 | 6790 nM | 0.852 | 305 nM | 0.837 | 1060 nM | – | – | 0.99 | > 100 nM | – | –
KALS-1 (glioma, adherent) | 0.912 | > 16000 nM | 0.889 | > 512 nM | – | – | 0.949 | > 10200 nM | 0.975 | > 100 nM | – | –
UACC-257 (melanoma, adherent) | 0.907 | > 16000 nM | – | – | 0.976 | > 2000 nM | 0.805 | 6750 nM | 0.978 | > 100 nM | – | –
KP-N-YS (neuroblastoma, adherent) | 0.958 | > 16000 nM | 0.887 | > 512 nM | – | – | 0.893 | > 10200 nM | – | – | – | –
SKM-1 (haematopoietic neoplasm, suspension) | 0.98 | > 16000 nM | – | – | – | – | – | – | 0.982 | > 100 nM | – | –
KARPAS-231 (B-cell leukaemia, suspension) | 0.943 | > 16000 nM | 0.895 | 370 nM | 0.768 | 590 nM | – | – | 0.991 | > 100 nM | – | –
NB17 (neuroblastoma, adherent) | 0.962 | > 16000 nM | 0.953 | > 512 nM | 0.978 | > 2000 nM | 0.89 | > 10200 nM | – | – | – | –
ECC12 (stomach, suspension) | 0.952 | > 16000 nM | 0.843 | 507 nM | – | – | – | – | – | – | – | –
NCI-H128 (small cell lung carcinoma, suspension) | 0.979 | > 16000 nM | – | – | – | – | – | – | – | – | – | –
G-402 (soft tissue, adherent) | – | – | 0.747 | 212 nM | 0.959 | > 2000 nM | 0.745 | 4160 nM | 0.974 | > 100 nM | 0.212 | 103 nM
Hs683 (glioma, adherent) | – | – | 0.756 | 177 nM | 0.975 | > 2000 nM | 0.916 | > 10200 nM | 0.966 | > 100 nM | 0.328 | 330 nM
COLO-783 (melanoma, adherent) | – | – | 0.99 | > 512 nM | 0.991 | > 2000 nM | 0.916 | > 10200 nM | 0.99 | > 100 nM | 0.838 | 10200 nM
SiHa (cervix, adherent) | – | – | 0.974 | > 512 nM | 0.986 | > 2000 nM | 0.987 | > 10200 nM | 0.971 | > 100 nM | 0.629 | 2410 nM
EW-12 (Ewing sarcoma, suspension) | 0.975 | > 16000 nM | – | – | – | – | – | – | – | – | – | –
PA-TU-8988T (pancreas, adherent) | – | – | 0.935 | > 512 nM | 0.982 | > 2000 nM | 0.903 | > 10200 nM | 0.981 | > 100 nM | 0.241 | 178 nM
JHH-2 (liver, adherent) | – | – | 0.949 | > 512 nM | 0.979 | > 2000 nM | 0.926 | > 10200 nM | 0.983 | > 100 nM | 0.748 | 5480 nM
JHU-011 (head and neck, adherent) | – | – | 0.8 | 243 nM | 0.651 | 326 nM | 0.946 | > 10200 nM | 0.984 | > 100 nM | 0.048 | < 62.5 nM
NCI-H2029 (small cell lung carcinoma, adherent) | – | – | 0.98 | > 512 nM | 0.926 | > 2000 nM | 0.978 | > 10200 nM | 0.992 | > 100 nM | 0.81 | 7410 nM
SW982 (soft tissue, adherent) | – | – | 0.543 | 42 nM | 0.925 | > 2000 nM | 0.948 | > 10200 nM | 0.977 | > 100 nM | 0.175 | 100 nM
SISO (cervix, adherent) | – | – | 0.855 | 383 nM | 0.944 | > 2000 nM | 0.968 | > 10200 nM | 0.987 | > 100 nM | 0.039 | < 62.5 nM
HT-1376 (bladder, adherent) | – | – | 0.925 | > 512 nM | 0.834 | – | 0.985 | > 10200 nM | 0.984 | > 100 nM | 0.481 | 877 nM
LN-18 (glioma, adherent) | – | – | 0.83 | 240 nM | 0.977 | > 2000 nM | 0.993 | > 10200 nM | 0.976 | > 100 nM | 0.25 | 229 nM
PCI-4B (head and neck, adherent) | – | – | 0.841 | 330 nM | 0.692 | 418 nM | 0.953 | > 10200 nM | 0.981 | > 100 nM | 0.128 | 72 nM
PL4 (pancreas, adherent) | – | – | 0.902 | > 512 nM | 0.987 | > 2000 nM | 0.933 | > 10200 nM | 0.985 | > 100 nM | 0.704 | 3830 nM

— the supplement of paper PMC4967469
